Laboratory results published in PubChem BioAssay AID1460 (National Center for Advancing Translational Sciences (NCATS), 2008).
Hit rate of the full screen: of about 270,000 compounds, about 5,800 (2.1%) were called active. This list was built around the results that the source calls inconclusive (neither active nor inactive); the mix of calls is not that of the screen. Calls come from the whole dose curve; as a rule, active = well fitted inhibition curve with a large enough effect; inconclusive = small, poorly fitted or top-dose-only effect; inactive = flat fitted curve, though single readings scatter. Potencies beside an inconclusive call are fits to weak or partial responses and may not hold up.

Molecular target: Microtubule-associated protein tau (Homo sapiens) (UniProt P10636)
Assay: qHTS for Inhibitors of Tau Fibril Formation, Thioflavin T Binding; note: nearly all actives have a fitted effect of over 55% in size
Conditions: recombinant tau K18 P301L (four-repeat tau fragment), heparin-induced fibrillization, ThT fluorescence; series mostly up to 57.4 µM
Procedure, shortened: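 Recombinant human tau K18 fragment […] carrying P301L, 15 uM unlabeled plus 0.24 uM Alexa 594-labeled, was fibrillized with 20 uM heparin in 100 mM sodium acetate pH 7 for 6 hr at 37 C; 30 uM ThT fluorescence read after 1 hr.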
Potency is the fitted concentration of half-maximal effect; tags give direction and shape of the fitted curve.

Sequence of UniProt P10636 (P10636 whole entry, looked up): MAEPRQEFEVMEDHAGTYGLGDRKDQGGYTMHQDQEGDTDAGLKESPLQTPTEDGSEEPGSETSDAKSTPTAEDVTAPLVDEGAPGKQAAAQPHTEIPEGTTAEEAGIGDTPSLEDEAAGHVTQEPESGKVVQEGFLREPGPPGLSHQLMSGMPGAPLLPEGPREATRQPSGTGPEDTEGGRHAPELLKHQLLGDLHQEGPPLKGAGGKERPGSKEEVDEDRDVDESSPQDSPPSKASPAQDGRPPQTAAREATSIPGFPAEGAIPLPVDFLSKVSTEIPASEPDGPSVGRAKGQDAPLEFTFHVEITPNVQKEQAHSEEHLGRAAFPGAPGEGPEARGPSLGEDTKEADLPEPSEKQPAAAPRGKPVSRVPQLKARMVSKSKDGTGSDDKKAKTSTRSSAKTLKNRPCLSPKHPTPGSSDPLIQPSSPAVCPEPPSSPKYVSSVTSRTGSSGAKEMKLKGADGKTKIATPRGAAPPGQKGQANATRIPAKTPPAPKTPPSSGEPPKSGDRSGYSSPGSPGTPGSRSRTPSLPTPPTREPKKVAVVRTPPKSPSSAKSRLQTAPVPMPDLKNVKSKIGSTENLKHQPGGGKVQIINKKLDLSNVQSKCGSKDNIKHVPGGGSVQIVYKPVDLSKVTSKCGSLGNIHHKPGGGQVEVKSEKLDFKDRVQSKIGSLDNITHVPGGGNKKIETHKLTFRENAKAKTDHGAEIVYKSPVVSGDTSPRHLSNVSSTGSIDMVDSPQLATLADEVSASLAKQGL

| Structure (SMILES) | Potency |
| --- | --- |
| Cc1cccc(C(=O)Nc2cccc(C(=O)OCc3cc(=O)n4nc(C5CC5)sc4n3)c2)c1 | inconclusive: 1 µM [inhibitor, full curve] |
| Cn1ncc2c(NNC(=O)c3ccc(Cl)c(Cl)c3)ncnc21 | inconclusive: 17.8 µM [inhibitor, partial curve, poor fit] |
| O=C(Nc1cccc(NC(=O)c2ccco2)c1)c1ccc([N+](=O)[O-])cc1 | inconclusive: 0.891 µM [inhibitor, partial curve, poor fit] |
| CCCCNC(=O)C(c1ccc(OCC(=O)OC)c(C(=O)OC)c1)N(CCc1c[nH]c2ccccc12)C(=O)CCCCCN1C(=O)NC(c2ccc(-c3ccccc3)cc2)C(C(=O)OCc2ccccc2)=C1C (configuration not stated) | inconclusive: 0.126 µM [inhibitor, full curve, poor fit] |
| C(#CC1CCCCC1)c1ccc2c(c1)COc1c3ccccc3nn1-2 | inconclusive: 2 µM [inhibitor, full curve] |
| c1ccc(N2CCN(c3nc4cc5c(cc4s3)OCO5)CC2)cc1 | active: 2.51 µM |
| CCc1ccc(CNC(=O)C2CCN(c3nnc(-n4c(C)ccc4C)s3)CC2)cc1 | inconclusive: 28.2 µM [inhibitor, single point] |
| O=[N+]([O-])c1cccc(/C=N/Nc2ccccn2)c1 | inconclusive: 6.31 µM [inhibitor, single point] |
| Cc1ccc(-c2nc3ccccc3[nH]2)cc1NC(=O)c1ccc2c(c1)OCO2 | inconclusive: 39.8 µM [inhibitor, partial curve, poor fit] |
| Oc1ccc(Nc2nc(-c3cccs3)cs2)cc1 | inconclusive: 15.8 µM [inhibitor, partial curve] |
| CCOC(=O)/C(=N\Nc1ccccc1Cl)N(C)C1CCCCC1 | inconclusive: 31.6 µM [inhibitor, single point] |
| Cc1nc2ccc(Cl)cc2nc(C)/c1=N\O | inconclusive: 35.5 µM [inhibitor, single point] |
| Cc1cc(NC(=O)c2cc3n(n2)C(C(F)(F)F)CC(c2ccco2)N3)no1 (configuration not stated) | inconclusive: 12.6 µM [inhibitor, partial curve] |
| Cc1cccc(-c2nnc(SCCC(=O)O)o2)c1 | inconclusive: 0.708 µM [inhibitor, single point] |
| O=C(Nc1nc(=O)n(C(=O)C2CC2)s1)c1ccccc1 | active: 11.2 µM |
| O=C(c1cnn2c(C(F)(F)F)cc(-c3ccco3)nc12)N1CCc2ccccc2C1 | inconclusive: 12.6 µM [inhibitor, partial curve, poor fit] |
| COC(=O)c1c(-c2ccccc2Cl)noc1/C=C/N(C)C | inconclusive: 20 µM [inhibitor, single point] |
